# In PubChem BioAssay AID2675 (National Center for Advancing Translational Sciences (NCATS), 2010):
# Values joined by “and” are separate entries in the source; they are usually repeats but may differ in a detail not shown here. Identical values can stand only once. Out of some 280,000 compounds screened, about 100 (0.036%) were called active. The inconclusive results got no clear call from the source; some entries with a clear call stand among them for comparison. The call rests on the fitted dose curve; in most records, active means well fitted inhibition curve with a large enough effect in the signal ratio, with a control signal flat (not every such curve was filed as active); inconclusive means small, poorly fitted or top-dose-only effect, or effect the other way, or a change in a side signal; inactive means no such curve, though single readings can be large or run the other way; the % refers to the signal ratio. Potencies beside an inconclusive call are fits to weak or partial responses and may not hold up. A note “side channel” means that the fit belongs to a control or component signal, not to the main read-out.
# Target: Muscleblind-like protein 1 (Homo sapiens) (UniProt Q9NR56)
# Sequence of UniProt Q9NR56 (Q9NR56 whole entry, looked up): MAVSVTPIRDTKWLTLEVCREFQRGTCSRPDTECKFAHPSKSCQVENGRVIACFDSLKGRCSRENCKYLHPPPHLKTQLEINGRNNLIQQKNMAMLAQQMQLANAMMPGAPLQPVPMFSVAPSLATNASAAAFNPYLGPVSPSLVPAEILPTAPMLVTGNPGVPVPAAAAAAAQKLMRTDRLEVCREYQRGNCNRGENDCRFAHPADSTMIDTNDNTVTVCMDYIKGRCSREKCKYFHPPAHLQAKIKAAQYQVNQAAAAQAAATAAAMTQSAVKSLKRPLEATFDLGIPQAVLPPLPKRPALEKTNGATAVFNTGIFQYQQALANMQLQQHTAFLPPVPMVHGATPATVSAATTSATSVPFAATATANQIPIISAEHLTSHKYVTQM
# Test: qHTS Assay for Inhibitors of MBNL1-poly(CUG) RNA binding
# Conditions: TR-FRET MBNL1-His/biotin-(CUG)12 binding, 665/545 ratio; activity change, negative = inhibition: at 57.5 µM (top of the series)
# Procedure, shortened: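 His-tagged MBNL1 binding to biotinylated (CUG)12 RNA was measured by TR-FRET using terbium anti-His antibody (0.055 ng/ul final) and streptavidin-XL665 (5 nM final). Compounds were titrated 92 nM to 58 uM; 60 min at room temperature.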
# On the % scale 0 is the no-effect control and ±100 the full control effect; potency means the concentration at half of the fitted maximal effect; tags describe the fitted curve by direction and shape or compound fluorescence and quenching.
SMILES,Potency,"activity change, negative = inhibition"
Cc1ccc(S(=O)(=O)NN2C(=O)c3ccccc3NC2(C)C)cc1,"inconclusive: 39.8 µM [fluorescent, side channel, partial curve]",
CNC(=O)C(=O)NCC1OCCN1S(=O)(=O)c1ccc([N+](=O)[O-])cc1 (configuration not stated),"inconclusive: 14.1 µM [quencher, side channel, partial curve]",
COc1ccc(/C=C2\CCOC2=O)cc1,"inconclusive: 22.4 µM [quencher, side channel, single point] and inconclusive: 14.1 µM [quencher, side channel, partial curve]",
CCOc1cc(CNCCc2ccccc2)ccc1OCC(=O)NC(C)(C)C,"inconclusive: 0.1 µM [fluorescent, side channel, full curve, poor fit]",
Cc1cc(OCc2ccc(F)cc2)nc(-c2ccccc2O)n1,"inconclusive: 39.8 µM [fluorescent, side channel, single point]",
CCOc1ccccc1N=Nc1c(C)[nH]n(C(N)=S)c1=O,"inconclusive: 4.47 µM [quencher, side channel, full curve, poor fit]",
COc1ccc(OC)c(NC(=O)c2ccc3c(c2)C(=O)N(CC2CCCO2)C3=O)c1 (configuration not stated),"inconclusive: 28.2 µM [quencher, single point]",
COc1ccc(/C=C2\SC(=O)N(CC(=O)NNC(=O)c3ccccc3O)C2=O)cc1OC,"inconclusive: 12.6 µM [quencher, side channel, partial curve]",
O=C(COc1cccc2ccccc12)N/N=C/c1ccncc1,"inconclusive: 15.8 µM [quencher, side channel, single point]",
COc1ccc(NC(=S)c2ccncc2)cc1,"inconclusive: 39.8 µM [quencher, side channel, single point]",
COCCNC(=O)c1cc(-c2ccccc2OC)on1,,inactive: -11.7%
CC1C/C(=C/c2ccncc2)C(=O)/C(=C/c2ccncc2)C1 (configuration not stated),,inactive: -23.5%
CCOc1ccc(C(=O)c2cc3ccc(O)cc3oc2=O)cc1,"inconclusive: 39.8 µM [quencher, side channel, single point]",
NC(=O)COc1c(-c2ccc(Br)o2)oc2ccccc2c1=O,"inconclusive: 14.1 µM [quencher, side channel, partial curve]",
CC(c1ccco1)N(C(=O)c1ccccc1NS(=O)(=O)c1cc([N+](=O)[O-])ccc1Cl)c1ccccn1 (configuration not stated),"inconclusive: 12.6 µM [quencher, side channel, partial curve]",
C/C(Cc1ccccc1)=N\NC(=O)C1CCCCC1,,inactive: -0.567%
Cc1c(NC(=S)N/N=C\c2ccccc2O)c(=O)n(-c2ccccc2)n1C,,inactive: 16.1%
COc1cc(/C=N/NC(=O)c2nonc2N)cc(OC)c1OC,"inconclusive: 25.1 µM [quencher, side channel, single point]",
COc1cccc2c1-c1c(O)cccc1C2=O,"inconclusive: 14.1 µM [quencher, side channel, partial curve]",

SMILES,Potency,"activity change, negative = inhibition"
Cc1ccc(O)c(N=Nc2ccccc2)n1,"inconclusive: 12.6 µM [quencher, side channel, partial curve]",
COc1ccc(F)c(CN2CCC(n3nccc3NC(=O)C3CCOC3)CC2)c1 (configuration not stated),,inactive: -1.42%
O=C(NCc1ccco1)/C(=C\c1cccs1)NC(=O)c1cccs1,"inconclusive: 20 µM [quencher, side channel, single point]",
O=[N+]([O-])c1cc(C(F)(F)F)cc([N+](=O)[O-])c1NN=C1CCCCC1,"inconclusive: 25.1 µM [quencher, side channel, partial curve]",
O=C(/C=C/c1ccccc1[N+](=O)[O-])N1CCN(c2ccccc2F)CC1,"inconclusive: 28.2 µM [quencher, side channel, single point]",
Cc1sc(NC(=O)c2ccco2)nc1-c1ccccc1,"inconclusive: 8.91 µM [quencher, side channel, single point]",
CNC(=O)/C(C#N)=C/c1c(N2CCCCCC2)nc2ccccn2c1=O,"inconclusive: 12.6 µM [quencher, partial curve]",
COc1cccc(N=c2oc3c(C)ncc(CO)c3cc2C(N)=O)c1,"inconclusive: 14.1 µM [quencher, side channel, partial curve]",
COC(=O)c1ccc(-c2csc(NC(=O)c3ccc(S(=O)(=O)N4CCc5ccccc5C4)cc3)n2)cc1,"inconclusive: 39.8 µM [fluorescent, side channel, single point]",
O=C(Nc1ccccc1Cl)c1ccccc1S(=O)(=O)c1ccccc1[N+](=O)[O-],"inconclusive: 20 µM [quencher, side channel, partial curve]",
Cc1onc(-c2ccccc2Cl)c1C(=O)Nc1sc2c(c1C#N)CCC2,,inactive: 6.55%
CC(C)[n+]1ccn(C2=C([O-])c3ccccc3C(=O)/C2=N\S(=O)(=O)c2ccccc2)c1,"inconclusive: 7.94 µM [quencher, side channel, partial curve]",
C=Cc1c(C)c2cc3[nH]c(cc4nc(cc5nc(cc1[nH]2)C(C)=C5CCC(=O)O)C(CCC(=O)O)=C4C)c(C)c3C=C,"inconclusive: 11.2 µM [quencher, side channel, partial curve, poor fit]",
O=C(CC(Sc1n[nH]c(-c2ccccc2)n1)c1ccccc1)NCc1ccccc1 (configuration not stated),"inconclusive: 1.12 µM [fluorescent, side channel, partial curve]",
CCCn1c(N)c(Sc2ccccc2[N+](=O)[O-])c(=O)n(CCC)c1=O,"inconclusive: 17.8 µM [quencher, side channel, partial curve]",
O=C1OCC2=C1C(c1ccc(F)cc1)c1cc3c(cc1N2)OCCO3 (configuration not stated),"inconclusive: 20 µM [quencher, side channel, partial curve]",
O=S(=O)(c1ccc(NC(=S)NC2CCCC2)cc1)N1CCCC1,,inactive: -3.99%
Cc1ccc(-c2cc(C(=O)NCCN3CCOCC3)c3ccccc3n2)o1,"inconclusive: 28.2 µM [quencher, side channel, single point]",
